The results in this text go back to PMC7819943, “Rice protein-binding microarrays: a tool to detect cis-acting elements near promoter regions in rice”.

The list shows a part of the results.

The experiment concerns the target T1, OsWOX13 (Oryza sativa, UniProt Q5QMM3 1-267).
T1 sequence: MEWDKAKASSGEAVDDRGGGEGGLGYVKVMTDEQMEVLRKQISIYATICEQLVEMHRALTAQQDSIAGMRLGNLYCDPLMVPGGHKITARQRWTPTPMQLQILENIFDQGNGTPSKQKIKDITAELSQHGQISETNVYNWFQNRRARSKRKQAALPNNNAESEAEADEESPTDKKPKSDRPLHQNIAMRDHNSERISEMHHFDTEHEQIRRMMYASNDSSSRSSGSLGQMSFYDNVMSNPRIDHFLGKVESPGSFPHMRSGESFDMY
Put plainly: protein-binding microarray (RPBM); PBS, 2% BSA, 51.3 ng/ul salmon testes DNA, 50 uM zinc acetate, 200 nM TF, 25 C, 1 h; high values mean tight binding. The following applies: protein: recombinant; tags: N-terminal polyhistidine and DsRed monomer fusion (pET32a); label: CyDye5-dUTP incorporated in the synthesized complementary strand; 3' TTTTT single-stranded linker to array surface; dsDNA, one strand shown. The essentials:
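Binding signal here means per-feature fluorescence intensity in arbitrary units. The values were read on an Axon 4000B scanner after a custom Agilent array, double-stranded by primer extension with Cy5-dUTP, was incubated with 200 nM protein at 25 °C for 1 h in PBS with 2% BSA, salmon testes DNA and 50 µM zinc acetate, then washed. The proteins were transcription factors with an N-terminal polyhistidine tag and DsRed, expressed in E. coli BL21-CodonPlus and purified on Ni–NTA.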
For “ATAATGACAAATTGACTTTTGGGTGGTCCTGCTTCTACCTCGGAGTCACCTAGTGCAG”, the binding signal was 20200 fluorescence intensity (a.u.).

Take “GAATAAATAGGGGTTGATGACGTGGGTCCGGTCGCGGTTTCGGAGTCACCTAGTGCAG”: the binding signal was 6660 fluorescence intensity (a.u.).

In the case of “ATCATTAACTGCGCCACAACAAATCAACAGTCATCAAGACCGGAGTCACCTAGTGCAG”, the binding signal is 8630 fluorescence intensity (a.u.).

Regarding “GACGACATTAATTTGAGAGAATATGGTTTCAACCGAACCACGGAGTCACCTAGTGCAG”, the binding signal was 5210 fluorescence intensity (a.u.).

As for “GCATAAAATATTAATCATGTTTTATCATCTCACAACAATGCGGAGTCACCTAGTGCAG”, the binding signal is 4640 fluorescence intensity (a.u.).

For “TTTAATCTAAATTTGGTACATTAGAGGCCAGGGATGTTCTCGGAGTCACCTAGTGCAG”, the binding signal is 10600 fluorescence intensity (a.u.).

Take “AAATTTGCATAATTATGAAATAACATATCACATATTAATCCGGAGTCACCTAGTGCAG”: the binding signal was 16900 fluorescence intensity (a.u.).

Take “ATTCTGATTGGCAAGTTGGTTATTCCTTTTCTGATTGGTTCGGAGTCACCTAGTGCAG”: the binding signal is 60700 fluorescence intensity (a.u.).

For “GGTGCCAATTATGACCCATCACTGATAAGGGAAAATTCAACGGAGTCACCTAGTGCAG”, the binding signal was 14300 fluorescence intensity (a.u.).

Regarding “TTGTGGTGATTGAGAGGGTTTGAAAGGGGTTGATGTGTGGCGGAGTCACCTAGTGCAG”, the binding signal is 40000 fluorescence intensity (a.u.).

For “ATACAACCTAAATTTACCAATTAATCCAAATATAACTATTCGGAGTCACCTAGTGCAG”, the binding signal was 5660 fluorescence intensity (a.u.).

For the sequence “AAGAAATTAATTGTTGAAAAGATATCATCCAGCACCCCTACGGAGTCACCTAGTGCAG”, the binding signal was 24200 fluorescence intensity (a.u.).

For the sequence “CGCTAATTTATTAGGTATGACCTTGTTTATAGGGTTCTCACGGAGTCACCTAGTGCAG”, the binding signal is 23300 fluorescence intensity (a.u.).

With “AAATTAATTTATTAAAGCTTCATCATGGACATGTTCTCGGCGGAGTCACCTAGTGCAG”, the binding signal is 26100 fluorescence intensity (a.u.).

On to “GCAAACATATTGTGTTTATCAATCTAAATCACAAGAAGATCGGAGTCACCTAGTGCAG”, for which the binding signal is 4130 fluorescence intensity (a.u.).

“GGAAGGAATCGGTTTCTGATGATTGATGAACAGTAAAATCCGGAGTCACCTAGTGCAG”: the binding signal is 5290 fluorescence intensity (a.u.).

As for “TTACATATTAACTTGAGATGATCGGAATCACAATTGCAGACGGAGTCACCTAGTGCAG”, the binding signal was 3320 fluorescence intensity (a.u.).

Regarding “CCAAGACATAATGTGTGTATGACAGATGGGACCATATATTCGGAGTCACCTAGTGCAG”, the binding signal was 4220 fluorescence intensity (a.u.).

Regarding “TTGAATAAGTGATTGATGATATTAATACTCTATCGTGGTACGGAGTCACCTAGTGCAG”, the binding signal is 40000 fluorescence intensity (a.u.).

For the sequence “TAGAATCATAATAGAATATAATTAGTGTTATTCCTGGCAACGGAGTCACCTAGTGCAG”, the binding signal was 9980 fluorescence intensity (a.u.).

Turning to “CACAATTGGCCCGTTTATTCTGTTCTATCCACGACTCTCTCGGAGTCACCTAGTGCAG”, the binding signal was 6440 fluorescence intensity (a.u.).

Regarding “TTGAAATTTGATAAAATTCAATCCAAATTTGAAACTTTCTCGGAGTCACCTAGTGCAG”, the binding signal was 11600 fluorescence intensity (a.u.).

“CTAAATGCTGAAGAGATGATAGATTATCTGATTTTATGATCGGAGTCACCTAGTGCAG”: the binding signal is 3740 fluorescence intensity (a.u.).

Turning to “TTCTTGTTGAAATTTGTAATTTATGATGCATGAGGCCACACGGAGTCACCTAGTGCAG”, the binding signal is 6120 fluorescence intensity (a.u.).

Take “CGTATACGCTAATTAGCAAATCTAGTACAATAGTACTATGCGGAGTCACCTAGTGCAG”: the binding signal was 32700 fluorescence intensity (a.u.).

Turning to “ATTGATTTGAGAGAGAAACAATAATTTTGTAGTGTTCTATCGGAGTCACCTAGTGCAG”, the binding signal was 32400 fluorescence intensity (a.u.).

For “GAGTTAGATTGAGAAGTTATAACCATGTCAAACATGCTCTCGGAGTCACCTAGTGCAG”, the binding signal was 24700 fluorescence intensity (a.u.).

“GCGCTGATACTTGTAATCAATCAACTCATCAGCATGGTCTCGGAGTCACCTAGTGCAG”: the binding signal was 26100 fluorescence intensity (a.u.).

For the sequence “ATAGTGATATAAATAATAATTACTATTTGTTGCCTTCTTTCGGAGTCACCTAGTGCAG”, the binding signal was 7510 fluorescence intensity (a.u.).

Regarding “CTGTTTAATTAATGAGAGGTACCGTATTGTTTTCTTTTCACGGAGTCACCTAGTGCAG”, the binding signal is 17600 fluorescence intensity (a.u.).

Regarding “GAACTGTACGGCTCAGATTAATTGATCAGCTGCTCCTCGCCGGAGTCACCTAGTGCAG”, the binding signal is 4370 fluorescence intensity (a.u.).

As for “GGTAGATAGATGCAGTGATCGATGCACTAGTATTACATGGCGGAGTCACCTAGTGCAG”, the binding signal is 5460 fluorescence intensity (a.u.).

On to “TATCTTCATGATTGACTACCTTTCTAACTACAAGTTGTAACGGAGTCACCTAGTGCAG”, for which the binding signal is 25000 fluorescence intensity (a.u.).

Consider “TTAGATTAGATGGATAGTATTGTATTATATCCGATTTGTTCGGAGTCACCTAGTGCAG”, for which the binding signal was 27500 fluorescence intensity (a.u.).

In the case of “GCAGAAATGATTGCACTTCAATTATTGAGTAAAACAGATTCGGAGTCACCTAGTGCAG”, the binding signal was 30000 fluorescence intensity (a.u.).

For the sequence “CACATAATTTTGGGTATTATGGTTTAAAAGTTTCACAAAACGGAGTCACCTAGTGCAG”, the binding signal is 3600 fluorescence intensity (a.u.).

On to “TTGCAGATGCAAATTAATTCCTATATATATATGAACGCTGCGGAGTCACCTAGTGCAG”, for which the binding signal was 4070 fluorescence intensity (a.u.).

For the sequence “TTAAACAGGATATGGAGGATTTTCTTACTTAATGGAGCCTCGGAGTCACCTAGTGCAG”, the binding signal is 12100 fluorescence intensity (a.u.).

In the case of “CGTATAGATAATTTTGGATTTGAGTTTTATGGCTCCTGTTCGGAGTCACCTAGTGCAG”, the binding signal was 6510 fluorescence intensity (a.u.).

On to “TGTAGATTAGATCCCTCGGTGGTTTTGCACCCGGTTTTGTCGGAGTCACCTAGTGCAG”, for which the binding signal is 6030 fluorescence intensity (a.u.).

Regarding “TATAATTAACAAACAAAATTCAGAATGATCAAACTGGCTACGGAGTCACCTAGTGCAG”, the binding signal is 18800 fluorescence intensity (a.u.).

“TTCGACAAATTAAGGTGCCACTCACAGAAGCTAAGCACTGCGGAGTCACCTAGTGCAG”: the binding signal is 3710 fluorescence intensity (a.u.).

“ATAATTCTTGACGATAAACTAATTGTTGCCCAAAATCCAACGGAGTCACCTAGTGCAG”: the binding signal was 3330 fluorescence intensity (a.u.).

In the case of “GTGTTTGATTATTCGTTCCGGTGTGCGCGAAAGCGGGGAACGGAGTCACCTAGTGCAG”, the binding signal is 7540 fluorescence intensity (a.u.).

Take “CTTGATTTCTACATCGACTAACCAAAGTTAGAGAAAGATGCGGAGTCACCTAGTGCAG”: the binding signal was 5580 fluorescence intensity (a.u.).

For the sequence “ACCTGATAGATTCCAAGATGCACTTGCTCGGATATTGCAGCGGAGTCACCTAGTGCAG”, the binding signal is 29100 fluorescence intensity (a.u.).

Consider “AAAATTGCTATAAATTGTATTGGCGAAGAGCAGTTTTGGCCGGAGTCACCTAGTGCAG”, for which the binding signal is 13500 fluorescence intensity (a.u.).

On to “ACTTTAATAATTGGATTCTGGATATAGGCAATGGTAAAATCGGAGTCACCTAGTGCAG”, for which the binding signal is 10200 fluorescence intensity (a.u.).

With “GTATCAATCCCCTTTTCATTTGTTAAAGAAAATGTTAAAACGGAGTCACCTAGTGCAG”, the binding signal is 5170 fluorescence intensity (a.u.).

For “ATCTCAATCTCAGGTTTGATGAAAACGACCACGTCATCGGCGGAGTCACCTAGTGCAG”, the binding signal is 3240 fluorescence intensity (a.u.).

For “GCTGTTATTGGTTTCAAATTTTCATCTAGCTCCTAATTGTCGGAGTCACCTAGTGCAG”, the binding signal was 4460 fluorescence intensity (a.u.).

Take “CTAGATAGATTTATATGTTTAAATTTATTAACATCAATATCGGAGTCACCTAGTGCAG”: the binding signal is 17200 fluorescence intensity (a.u.).

For “ATGATTGACATGTTCGATGACATAATCCAAAGTAATAACGCGGAGTCACCTAGTGCAG”, the binding signal is 48800 fluorescence intensity (a.u.).

Turning to “CTGGCTGATTGCGTTGTGTATCAAAACTCTATTCCATCTACGGAGTCACCTAGTGCAG”, the binding signal is 37100 fluorescence intensity (a.u.).
